According to the supplement of paper PMC12632987:
Over roughly 4,500 sequences, “median log2 fold change of GCK-ALFA target abundance (FLAG IP / Myc IP barcode read proportion)” has its median near 0.078; the lowest 2% begin near -0.6. This is one part of the list.

B1: GBRAP_137_3654 (protein)
chain: MKININITIDGDFAEIEIKADTKELAEKSADILYEVAKETGVAIAISLDLENKTVYADLLGEKEKIREAIEKFIEKLSKIADVNLTLTEDGKTTKEEIKK
B2: GBRAP_160_3974 (protein)
chain: KEEIEELEKEIEEIFDEAIEMIKGESYENRLTIIRVMVGEILLLADENELISDELEEEIDEIGDELIAYIEANPDLTDEEITALIEEARDKILEAIKKEH
B3: GBRAP_184_5090 (protein)
chain: KTYEALVEAETKEEALKKLEEVLEKAAKEKANLTVLVDLKGLDVEEAIELLEKAGKAKKEGKVPDVTVGFANAFTEEEVDKILKKADEVGVKVVLPLKEE
B4: GBRAP_26_5465 (protein)
chain: MEEAFKKAIEKIDEITAKLPNPEAAAALRALADTEIEELEEDIENGEDIDKAVEKHEKEFLEEAREILEEAGLPEELIEKTLEEFRKVFDELKEDLKKEQ
B5: GBRAP_83_6945 (protein)
chain: KEHWVVAAPGDRVEEAVEIALDLKKEEGKEVSLEVIFSDEQAEKVVEAIKEGIKKGLETEILLVHTDSNLEKAEEVAEKIKKAAKEAGKKVEVKVAVLEP
B6: GBRAP_128_3497 (protein)
chain: SVEEAVARTRALMAAIGEADAAEAAALTAEWVALLAGLDAEGREAAVAVAEELLPELDAERLDVVADTLRAARPSLDPETANLVADLEVEALNAAEEKEE
B7: GBRAP_55_6434 (protein)
chain: SEDEELDKEASEDLVETAAALVEDPAAMERVINRLAKEQAGHPIYVTKEALDLLPTEEQRRAFLTALVRAAKANPKIKGIKLVDVSEEDKALLEEAKKEV
B8: GBRAP_125_3050 (protein)
chain: ALEAAVAALAALARLLGLSDEEVAELAALARRHGVKGALIALLLAEGEEEAAELAARLSEEAVVAVLLEFAAWLAAHPDISREEALARLRELLRAALARE
B9: GBRAP_11_2719 (protein)
chain: KKEELEKLAKKAEELAKKVEKLIKEGPKKEEIKKLKEEVEKLREEAKKIGADEDILKTLEIAAEDLKEAIEKPENVKEHLKNAKAALRVAAGQLLLEAEE
B10: GBRAP_35_5537 (protein)
chain: NEEEEEVEMIVNTMEDIVEALPDVSPEEQLTLAKHLIKLAKDLVEEKPKNKELVKRAIENLERAIEIIKKSDLPEEEQEKLIKELKEVKEKLEKILKENE
B11: GBRAP_128_3317 (protein)
chain: MDEERLEEFEELAEEAKTADLERLREITRRMVELIGELDEEEREEAEEIFREALEKLDAEKLDVVADTLEEKRPELDEEAANVVAGLEVDALNLAEEKEE
B12: GBRAP_125_2982 (protein)
chain: PTEQELEDLRRFARALGLDEEEAEEAAELARAHSLRGTVYAILAALGEEEAADLVEKLTEEEVARVLRRVAAYLEAHPDATPEEVVALFRELAEEELAKR
B13: GBRAP_128_3542 (protein)
chain: SLEEARERAEKVMEEIKNSTVEEAAEITRAFLEELKTWSDEEVEAAVDVVIEKLPELTAEKLEAVADTIREQRPKFSPEKQNLLADVEVEALNEALEKEE
B14: GBRAP_125_3048 (protein)
chain: SMEEAIEALAAIARLLGYSEEEVEEIKELARRHGVKQTLIAIALAEGEEELADLAAKLTDEEIEEVLKKLLAWLKAHPDATAEEVLAKLKELLEEALAKK
B15: GBRAP_150_3932 (protein)
chain: SLEELEILTDTLLDLIEVIPELGLPMAEHAAKVAKAAEDEAKEIDPELAELAAKALKALEELIKAMKAGAKQEELDKLIEKALEYAKKLLEKVEELKKKA
B16: GBRAP_83_6943 (protein)
chain: KEKVTVAAPGDRVEEAVEIAFDLQEEEGLEVVLEVLFTSEERERVLAALEAAIDRGFEGEIHLYSLDRDEAGLEAAVAALRARAAAAGRDVTVTGHVNEE
B17: GBRAP_166_4950 (protein)
chain: SLEEIKKELTELIERLAEKMKTANAEEQLELYAEIAEELAKAKEAGLSDEDLLALATRALELTKEAGGSVEQLLGVIEMFVDLTEEERDRLAAAAEAVLA
B18: GBRAP_160_4560 (protein)
chain: MERAEELVRETREDVERTLEETKNDSVENIRTAVVVTLGEHALEAAEDPRYSDEMVDAILDAGDRIAATLAELKNASYEERRAAVLAIVDEMGERILAIA
B19: GBRAP_52_5982 (protein)
chain: MRERMRRLAEELVRLVLEGREEEARELMERAARELSEEELEMIAEELAELAKTATPEEQDAILRAAEMMEDVWLKAGFDEALADDGLARVAAAVYDALQR

The binders below were run against GABARAP, O95166 (assay: median log2 fold change of GCK-ALFA target abundance (FLAG IP / Myc IP barcode read proportion) (log2 ratio); each designed protein is fused to an ALFA-tag nanobody in HEK293 cells to bring the named protein to FLAG-tagged glucokinase (GCK); Myc marks an untargeted standard; higher = target protein stabilised (more abundant)). Details: target protein: 3xFLAG-MCP-GCK-ALFA reporter; HEK293 landing pad (RPLP).
Outline: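 The readout is target abundance, the per-binder median log2 ratio of FLAG to Myc barcode read proportions. It came from HEK293 landing-pad cells carrying a recombined ALFA-nanobody-fused binder library, induced with 2 μg mL^−1 doxycycline and transfected with a plasmid for a FLAG-tagged target and a Myc-tagged standard. After 48 h, lysates were immunoprecipitated with anti-FLAG and anti-Myc, and circular RNA barcodes were reverse transcribed, amplified and sequenced. Each barcode needed a proportion of at least 10^−7 in both replicates and each binder at least 3 barcodes per replicate, a pseudocount of 10^−6 was added, and the replicates were pooled.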

GABARAP, O95166, sequence (O95166 whole entry, the tested form may be a part): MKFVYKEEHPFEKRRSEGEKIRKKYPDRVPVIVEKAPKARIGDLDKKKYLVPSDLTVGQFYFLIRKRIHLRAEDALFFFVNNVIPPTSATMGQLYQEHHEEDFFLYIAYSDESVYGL

Row | Binder | median log2 fold change
1 | B1 | -0.0874
2 | B2 | -0.442
3 | B3 | 0.01
4 | B4 | 0.353
5 | B5 | -0.0917
6 | B6 | 0.112
7 | B7 | 0.333
8 | B8 | -0.054
9 | B9 | 0.119
10 | B10 | 0.214
11 | B11 | -0.111
12 | B12 | -0.551
13 | B13 | -0.126
14 | B14 | -0.167
15 | B15 | 0.239
16 | B16 | 0.0825
17 | B17 | 0.212
18 | B18 | -0.223
19 | B19 | -0.0134
